Reference: the supplement of paper PMC9446081
Hit rate of the full screen: of about 39,000 compounds, about 220 (0.56%) showed activity. This is one part of the list.

Each molecule was assayed on Escherichia coli K-12 BW25113 (assay: relative growth (OD600 normalised to plate interquartile mean) (fraction); higher = less growth inhibition, active = 0.2 or less). Conditions: 50 µM; LB; incubation time: overnight (16-24 h).
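Note: static incubation at 37 °C against the wild-type strain, values averaged over two biological replicates.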

SMILES	relative growth
CCCCCC1C(=O)CCC1CC(=O)OC (configuration not stated)	inactive: 1.19
C[C@@H]1CCCCO[C@@H](CN(C)S(=O)(=O)c2ccc(Cl)cc2)[C@H](C)CN([C@@H](C)CO)C(=O)c2cc(NS(=O)(=O)c3ccccc3)ccc2O1	inactive: 1.03
Cc1noc(C)c1NC(=O)Nc1ccc2c(c1)C(=O)N([C@H](C)CO)C[C@@H](C)[C@@H](CN(C)S(=O)(=O)c1ccc(F)cc1)OCCCC[C@@H](C)O2	inactive: 0.971
Cc1noc(C)c1NC(=O)Nc1ccc2c(c1)C(=O)N([C@@H](C)CO)C[C@H](C)[C@H](CN(C)S(=O)(=O)c1cccs1)OCCCC[C@H](C)O2	inactive: 0.981
COc1ccccc1C#Cc1cnc2c(c1)C(=O)N([C@@H](C)CO)C[C@H](C)[C@H](CN(C)C(=O)CN(C)C)O2	inactive: 0.988
CCS(=O)(=O)Nc1ccc2c(c1)C(=O)N(C)[C@H]1CC[C@@H](CC(=O)N[C@H]3CCN(Cc4ccccc4)C3)O[C@H]1CO2	inactive: 1.03
COc1ccc(CN(C)C[C@@H]2OCCCC[C@@H](C)Oc3ccc(NC(=O)CCC(F)(F)F)cc3C(=O)N([C@H](C)CO)C[C@H]2C)cc1	inactive: 1.01
COc1ccc(S(=O)(=O)N(C)C[C@@H]2Oc3ccc(NC(=O)Nc4c(C)noc4C)cc3C(=O)N([C@H](C)CO)C[C@@H]2C)cc1	inactive: 0.94
C[C@@H]1CN([C@@H](C)CO)C(=O)c2cc(NC(=O)CCC(F)(F)F)ccc2O[C@@H](C)CCCCO[C@H]1CN(C)C(=O)Nc1cccc2ccccc12	inactive: 1.01
CN(C)C(=O)c1ccc(-c2cccc(-c3nc(C(=O)NC4CCC4)cc4c3[C@@H](CCO)N([S@](=O)C(C)(C)C)C4)c2)cc1	inactive: 1.01
O=CNC(=O)c1ccccc1C(=O)O	inactive: 0.928
C[C@H]1CN([C@@H](C)CO)C(=O)Cc2cc(NS(=O)(=O)c3cccs3)ccc2O[C@H]1CN(C)S(C)(=O)=O	inactive: 1.01
N#CCC(=O)Nc1ccncc1	inactive: 1.05
Cc1csc2c(Cl)ncnc12	inactive: 0.987
COc1cccc(NC(=O)N[C@H]2C=C[C@@H](CC(=O)N3CCN(C)CC3)O[C@@H]2CO)c1	inactive: 1.03
O=C(C[C@@H]1C[C@H]2c3cc(NC(=O)c4ccc5c(c4)OCO5)ccc3O[C@H]2[C@@H](CO)O1)NCc1cccnc1	inactive: 0.978
CO[C@H]1CN(C)C(=O)c2ccc(NS(=O)(=O)c3cn(C)cn3)cc2OC[C@H](C)N(Cc2cccc(F)c2)C[C@@H]1C	inactive: 1.02
CNC[C@H]1OCCCC[C@@H](C)Oc2ccc(NS(=O)(=O)c3cn(C)cn3)cc2C(=O)N([C@@H](C)CO)C[C@H]1C	inactive: 0.997
C[C@@H]1CN([C@@H](C)CO)C(=O)Cc2cc(NC(=O)NC3CCCCC3)ccc2O[C@H]1CN(C)S(=O)(=O)c1cn(C)cn1	inactive: 0.984
CC(C)[C@@H](CO)N1C(=O)[C@@H]2[C@H]3C(=O)OCC=C[C@H]3O[C@]23C=CCN(c2ccc4ccccc4c2)C(=O)[C@@H]13	inactive: 0.988
CN(Cc1ccccn1)C(=O)[C@@]12COC[C@@H]1CN(S(C)(=O)=O)C2	inactive: 1.02

SMILES	relative growth
CC1=C(C(N)=O)[C@@H](c2cccnc2)n2nnnc2N1	inactive: 1.04
[N-]=[N+]=N[C@]1(CO)O[C@@H](n2ccc(N)nc2=O)[C@H](O)[C@@H]1O	inactive: 0.973
C[C@@H]1CN([C@@H](C)CO)C(=O)c2cc(NC(=O)C3CCCCC3)ccc2O[C@@H](C)CCCCO[C@H]1CN(C)Cc1ccc(C(F)(F)F)cc1	inactive: 1.01
C[C@@H]1CCCn2nncc2COCCNC1=O	inactive: 0.991
FCOC(C(F)(F)F)C(F)(F)F	inactive: 1.2
O=C(O)c1cc(O)c2cccc(O)c2n1	inactive: 0.945
Cc1ccc(S(=O)(=O)N(C)C[C@@H]2Oc3ncc(C#Cc4cccc(F)c4)cc3C(=O)N([C@H](C)CO)C[C@@H]2C)cc1	inactive: 1.02
C[C@H]1CCCCO[C@H](CN(C)C(=O)NC2CCCCC2)[C@@H](C)CN([C@@H](C)CO)C(=O)c2cc(NS(=O)(=O)c3ccc(Cl)cc3)ccc2O1	inactive: 1.01
C[C@@H]1CN([C@H](C)CO)C(=O)Cc2cc(NC(=O)c3ccncc3)ccc2O[C@H]1CN(C)Cc1ccc(Oc2ccccc2)cc1	inactive: 1.02
COc1ccc(S(=O)(=O)Nc2ccc3c(c2)C(=O)N([C@H](C)CO)C[C@@H](C)[C@H](CN(C)C(=O)NC2CCCCC2)OCCCC[C@@H](C)O3)cc1	inactive: 0.999
C[C@@H]1CN([C@H](C)CO)C(=O)Cc2cc(NC(=O)Nc3ccc(C(F)(F)F)cc3)ccc2O[C@@H]1CN(C)Cc1ccc(C(=O)Nc2ccccc2N)cc1	inactive: 1.01
C[C@H](CO)N1C[C@H](C)[C@H](CN(C)C(=O)CN(C)C)Oc2ncc(C#CC3(O)CCCC3)cc2C1=O	inactive: 0.993
CC(C)NC(=O)Nc1cccc2c1O[C@@H](CN(C)Cc1ccc(Oc3ccccc3)cc1)[C@@H](C)CN([C@H](C)CO)C2=O	inactive: 0.894
COc1ccc(CN(C)C[C@H]2OCCCC[C@H](C)Oc3ccc(NC(=O)c4ccncc4)cc3C(=O)N([C@@H](C)CO)C[C@H]2C)cc1	inactive: 0.981
COc1ccc(S(=O)(=O)N(C)C[C@H]2OCCCC[C@@H](C)Oc3ccc(NC(=O)Nc4c(C)noc4C)cc3C(=O)N([C@@H](C)CO)C[C@H]2C)cc1	inactive: 0.971
C[C@@H]1CN([C@@H](C)CO)C(=O)c2cc(NC(=O)c3ccncc3)ccc2O[C@@H](C)CCCCO[C@H]1CN(C)S(=O)(=O)c1cn(C)cn1	inactive: 0.982
O=C(C[C@@H]1C=C[C@H](NC(=O)c2cccc(F)c2)[C@H](CO)O1)NCCN1CCCC1	inactive: 0.919
O=C(C[C@H]1CC[C@@H]2[C@H](COC[C@@H](O)CN2CC2CCOCC2)O1)N1CCOCC1	inactive: 0.983
Cc1ccc(S(=O)(=O)Nc2ccc3c(c2)C(=O)N([C@H](C)CO)C[C@H](C)[C@@H](CN(C)C(=O)Nc2cccc4ccccc24)OCCCC[C@@H](C)O3)cc1	inactive: 1.03
C[C@H](CO)N1C[C@H](C)[C@H](CN(C)Cc2ccc3c(c2)OCO3)Oc2ccc(NC(=O)C3CC3)cc2CC1=O	inactive: 1
COc1ccc(S(=O)(=O)N(C)C[C@@H]2Oc3ccc(NC(=O)Nc4c(C)noc4C)cc3C(=O)N([C@H](C)CO)C[C@H]2C)cc1	inactive: 0.893

SMILES	relative growth
C[C@H]1CN([C@@H](C)CO)C(=O)CCCn2cc(nn2)CO[C@H]1CN(C)S(C)(=O)=O	inactive: 0.991
Cc1ccc(-c2cnc3c(c2)C(=O)N([C@H](C)CO)C[C@H](C)[C@@H](CN(C)C(=O)Cc2ccncc2)O3)cc1	inactive: 1.02
C[C@@H]1CN([C@H](C)CO)C(=O)c2cc(C#CCN(C)C)cnc2O[C@@H]1CN(C)C(=O)c1ccc2c(c1)OCO2	inactive: 1.01
CS(=O)(=O)N1CCN(C(=O)NCc2ccccc2)C[C@]2(CNC(=O)C2)C1	inactive: 1.01
Cc1ccc(S(=O)(=O)Nc2ccc3c(c2)C(=O)N([C@H](C)CO)C[C@H](C)[C@H](CN(C)Cc2ccccc2)OCCCC[C@@H](C)O3)cc1	inactive: 0.99
C[C@H](CO)N1C[C@H](C)[C@@H](CN(C)C(=O)CCC(F)(F)F)OCc2ccccc2-c2c(n(C)c3ccccc23)C1=O	inactive: 0.996
C[C@H]1CN([C@@H](C)CO)C(=O)c2cc(NC(=O)Nc3ccc(F)cc3)ccc2O[C@H]1CN(C)CC1CCCCC1	inactive: 1.01
O=C(O)CCC(=O)N1CC(=O)Nc2ccccc21	inactive: 0.964
C[C@@H]1CCCCO[C@@H](CN(C)S(C)(=O)=O)[C@H](C)CN([C@@H](C)CO)C(=O)c2cc(NS(=O)(=O)c3cn(C)cn3)ccc2O1	inactive: 0.966
CN1C(=O)c2cc(NS(=O)(=O)CC(F)(F)F)ccc2OC[C@H]2O[C@@H](CC(=O)NCC3CCCCC3)CC[C@@H]21	inactive: 1.01
COc1ccc(-c2csc(C(C#N)=C3CCCCC3)n2)cc1	inactive: 0.993
CC(C)NC(=O)N[C@@H]1CC[C@@H](CCN)O[C@@H]1CO	inactive: 1.01
C[C@H](CO)N1C[C@H](C)[C@H](CN(C)C(=O)Cc2ccccn2)Oc2cc(-c3ccc(C(=O)N(C)C)cc3)ccc2S1(=O)=O	inactive: 0.991
C[C@@H]1CCCCO[C@@H](CN(C)S(=O)(=O)c2ccc(Cl)cc2)[C@@H](C)CN([C@@H](C)CO)C(=O)c2cc(NC(=O)Nc3ccc(F)cc3)ccc2O1	inactive: 1.03
Cc1ccc(S(=O)(=O)N(C)C[C@H]2OCCCC[C@H](C)Oc3ccc(NS(C)(=O)=O)cc3C(=O)N([C@H](C)CO)C[C@H]2C)cc1	inactive: 0.971
CCCNC(=O)Nc1ccc2c(c1)OC[C@@H](C)N(C(=O)C1CCOCC1)C[C@H](C)[C@@H](OC)CN(C)C2=O	inactive: 0.979
C[C@H]1CCCCO[C@H](CN(C)C(=O)Nc2ccc(C(F)(F)F)cc2)[C@@H](C)CN([C@@H](C)CO)C(=O)c2cc(NC(=O)Nc3ccc(C(F)(F)F)cc3)ccc2O1	inactive: 1.02
C[C@H]1CN([C@@H](C)CO)S(=O)(=O)c2ccc(C3=CCCCC3)cc2O[C@@H]1CN(C)S(=O)(=O)c1cn(C)cn1	inactive: 1.02
CN1C(=O)c2cc(NS(=O)(=O)c3ccc(F)cc3)ccc2OC[C@@H]2O[C@@H](CC(=O)NCC(F)(F)F)CC[C@H]21	inactive: 1.03
COc1cc2c(cc1OC)CN(C(=O)[C@@H]1[C@H]3C(=O)O[C@H](c4ccccc4)[C@H](c4ccccc4)N3[C@H](c3ccccc3OCCO)[C@@]13C(=O)Nc1ccc(C#CC4(O)CCCCCC4)cc13)CC2	inactive: 1.08
